In the supplement of paper PMC8728848:
Some of the results follow.

Experiments:
Experiment in all cases: glycan array binding signal (z-score within array); higher = stronger binding
Details in all cases: glycan notation: IUPAC condensed, linker removed
[1] = biological target: GlcNAc(b1-3)Man
Procedure, shortened: (§1)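 The binding signal is a Z-score computed within each array and averaged over linkers. Arrays of the same protein sequence at different concentrations or buffers were also averaged together. Data originate from 3228 arrays in the Consortium for Functional Glycomics database, kept only where the protein sequence was available.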

[2] = biological target: GlcNAc(b1-3)[GlcNAc(b1-4)][GlcNAc(b1-6)]GlcNAc
Procedure, shortened: as §1

[3] = biological target: GlcNAc(b1-3)[GlcNAc(b1-6)]Gal(b1-4)GlcNAc
Procedure, shortened: as §1

[4] = biological target: GlcNAc(b1-3)[GlcNAc(b1-6)]GalNAc
Procedure, shortened: as §1

[5] = biological target: GlcNAc(b1-4)Gal(b1-4)GlcNAc
Procedure, shortened: as §1

[6] = biological target: GlcNAc(b1-4)GlcNAc
Procedure, shortened: as §1

[7] = biological target: GlcNAc(b1-4)GlcNAc(b1-4)GlcNAc
Procedure, shortened: as §1

[8] = biological target: GlcNAc(b1-4)GlcNAc(b1-4)GlcNAc(b1-4)GlcNAc(b1-4)GlcNAc
Procedure, shortened: as §1

[9] = biological target: GlcNAc(b1-4)GlcNAc(b1-4)GlcNAc(b1-4)GlcNAc(b1-4)GlcNAc(b1-4)GlcNAc
Procedure, shortened: as §1

[10] = biological target: GlcNAc(b1-4)[GlcNAc(b1-6)]GalNAc
Procedure, shortened: as §1

[11] = biological target: GlcNAc(b1-6)Gal(b1-4)GlcNAc
Procedure, shortened: as §1

[12] = biological target: GlcNAc(b1-6)GalNAc
Procedure, shortened: as §1

[13] = biological target: GlcNAc6S(b1-3)Gal(b1-4)GlcNAc
Procedure, shortened: as §1

[14] = biological target: Kdn(a2-3)Gal(b1-3)GalNAc
Procedure, shortened: as §1

[15] = biological target: Kdn(a2-3)Gal(b1-3)GlcNAc
Procedure, shortened: as §1

[16] = biological target: Kdn(a2-3)Gal(b1-4)Glc
Procedure, shortened: as §1

[17] = biological target: Kdn(a2-3)Gal(b1-4)GlcNAc
Procedure, shortened: as §1

[18] = biological target: Kdn(a2-3)Gal(b1-4)[Fuc(a1-3)]GlcNAc
Procedure, shortened: as §1

[19] = biological target: Kdn(a2-6)Gal(b1-4)GlcNAc
Procedure, shortened: as §1

[20] = biological target: Man(a1-2)Man(a1-2)Man(a1-3)Man
Procedure, shortened: as §1

[21] = biological target: Man(a1-2)Man(a1-2)Man(a1-6)[Man(a1-3)]Man
Procedure, shortened: as §1

[22] = biological target: Man(a1-2)Man(a1-3)Man
Procedure, shortened: as §1

[23] = biological target: Man(a1-2)Man(a1-3)[Man(a1-2)Man(a1-6)]Man
Procedure, shortened: as §1

[24] = biological target: Man(a1-2)Man(a1-3)[Man(a1-2)Man(a1-6)]Man(a1-6)[Man(a1-2)Man(a1-2)Man(a1-3)]Man
Procedure, shortened: as §1

[25] = biological target: Man(a1-2)Man(a1-3)[Man(a1-2)Man(a1-6)]Man(a1-6)[Man(a1-2)Man(a1-2)Man(a1-3)]Man(b1-4)GlcNAc(b1-4)GlcNAc
Procedure, shortened: as §1

[26] = biological target: Man(a1-2)Man(a1-3)[Man(a1-6)]Man(a1-6)[Man(a1-2)Man(a1-3)]Man(b1-4)GlcNAc(b1-4)GlcNAc
Procedure, shortened: as §1

[27] = biological target: Man(a1-2)Man(a1-6)[Man(a1-3)]Man(a1-6)[Man(a1-2)Man(a1-2)Man(a1-3)]Man
Procedure, shortened: as §1

[28] = biological target: Man(a1-2)Man(a1-6)[Man(a1-3)]Man(a1-6)[Man(a1-2)Man(a1-2)Man(a1-3)]Man(b1-4)GlcNAc(b1-4)GlcNAc
Procedure, shortened: as §1

[29] = biological target: Man(a1-3)[Man(a1-6)]Man
Procedure, shortened: as §1

[30] = biological target: Man(a1-3)[Man(a1-6)]Man(a1-6)[Man(a1-2)Man(a1-3)]Man(b1-4)GlcNAc(b1-4)GlcNAc
Procedure, shortened: as §1

[31] = biological target: Man(a1-3)[Man(a1-6)]Man(a1-6)[Man(a1-3)]Man
Procedure, shortened: as §1

[32] = biological target: Man(a1-3)[Man(a1-6)]Man(a1-6)[Man(a1-3)]Man(b1-4)GlcNAc(b1-4)GlcNAc
Procedure, shortened: as §1

[33] = biological target: Man(a1-3)[Man(a1-6)]Man(b1-4)GlcNAc(b1-4)GlcNAc
Procedure, shortened: as §1

[34] = biological target: Man(a1-3)[Man(a1-6)]Man(b1-4)GlcNAc(b1-4)[Fuc(a1-6)]GlcNAc
Procedure, shortened: as §1

[35] = biological target: Man(a1-6)Man
Procedure, shortened: as §1

[36] = biological target: Man(b1-4)GlcNAc
Procedure, shortened: as §1

[37] = biological target: MurNAc(b1-4)GlcNAc
Procedure, shortened: as §1

[38] = biological target: Neu5Ac(a2-3)Gal
Procedure, shortened: as §1

B1: PX9961U-pdi-543-24-543 (Parabacteroides distasonis) (protein)
chain: EEPVGEFLPGQVESEENIEGIVTGAYAVLDGYYASDAINSGCSNWQFGDVVSDDAYKGGGGTGDQNQIHLMEIFNANPTGIDFEARWAALYEGIKRCNQAIRLLNGSEVKNKEQRLAEMRFLRGHYYFNLKIIYNQIPWIDETLVDPNEYNKKSNIEFSSDQLWEKILEEFSAAYKVLPESQADYGRPTKMAARAYMAKVYLYQSKWKECLEACDEVIQSGKYELFPDFRNVFLPENDNCSEIIFAIQLSINDGSPNNENGSYGDRLLPPGGPYPVYGFLRPTQNLVNAYKTDVKGLPYNDGKDVSENDYVDVRLDHTLARPNIPFMDVQLYDWTPREASVYGPYSPKKRLVSLNSTYYSPIWPYVNALNFYVIRYADLLLWRAEAAIETGDLETGRKYINMIRERAKNTQHVKTMDQSQDAANYKVGVYDEPFKSKNEAVQALRMERRLEMAHEGIRFFDLVRWGVADEVINAYIAKEKVFRSHLQNAHFVKGKHEYFPIPQSMIDICGTEVMKQNPGY
glycan array binding signal (z-score) [1]: -0.374
glycan array binding signal (z-score) [2]: -0.405
glycan array binding signal (z-score) [3]: -0.401
glycan array binding signal (z-score) [4]: -0.366
glycan array binding signal (z-score) [5]: -0.381
glycan array binding signal (z-score) [6]: 0.109
glycan array binding signal (z-score) [7]: -0.444
glycan array binding signal (z-score) [8]: -0.391
glycan array binding signal (z-score) [9]: -0.419
glycan array binding signal (z-score) [10]: -0.436
glycan array binding signal (z-score) [11]: -0.084
glycan array binding signal (z-score) [12]: 0.008
glycan array binding signal (z-score) [13]: 0.286
glycan array binding signal (z-score) [14]: 0.638
glycan array binding signal (z-score) [15]: -0.426
glycan array binding signal (z-score) [16]: -0.227
glycan array binding signal (z-score) [17]: -0.432
glycan array binding signal (z-score) [18]: 0.924
glycan array binding signal (z-score) [19]: -0.416
glycan array binding signal (z-score) [20]: -0.441
glycan array binding signal (z-score) [21]: -0.333
glycan array binding signal (z-score) [22]: -0.489
glycan array binding signal (z-score) [23]: -0.393
glycan array binding signal (z-score) [24]: -0.429
glycan array binding signal (z-score) [25]: -0.408
glycan array binding signal (z-score) [26]: -0.302
glycan array binding signal (z-score) [27]: -0.388
glycan array binding signal (z-score) [28]: -0.45
glycan array binding signal (z-score) [29]: -0.227
glycan array binding signal (z-score) [30]: 6.64
glycan array binding signal (z-score) [31]: -0.096
glycan array binding signal (z-score) [32]: -0.352
glycan array binding signal (z-score) [33]: -0.44
glycan array binding signal (z-score) [34]: -0.45
glycan array binding signal (z-score) [35]: -0.267
glycan array binding signal (z-score) [36]: -0.381
glycan array binding signal (z-score) [37]: -0.427
glycan array binding signal (z-score) [38]: -0.402
